Assay results: a collection of fitness landscapes (doi:10.1016/j.celrep.2020.107928)
In all, about 81,000 sequences were measured (“one-hybrid fitness for binding NBS DNA”: median about -0.1, highest 2% from about 0.36 on). The list shows a part of the results.

B1: Caulobacter ParB omega fusion; a variant is named by its letters at X, in order, B8GW30 (parent)
chain: MESVVVGEPGMSEGRRGLGRGLSALLGEVDAAPAQAPGEQLGGSREAPIEILQRNPDQPRRTFREEDLEDLSNSIREKGVLQPILVRPSPDTAGEYQIVAGERAWRAAQRAGLKTVPIMVRELDDLAVLEIGIIENVQRADLNVLEEALSYKVLMEKFERTQENIAQTIGKSXSHVANXMRLLXLPDEVQSYLVSGELTAXHARAIAAAADPVALAKQIIEGGLSVRETEALARKAPNLSAGKSKGGRPPRVKDTDTQALESDLSSVLGLDVSIDHRGSTGTLTITYATLEQLDDLCNRLTRGI

Variants of: B1
Assay: one-hybrid fitness for binding NBS DNA (the Noc-binding site; scaled: cognate 1, non-cognate 0); higher = stronger binding
Details: with NBS DNA site
How it was run: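 Fitness is the rescaled log change in variant-to-wild-type read ratio, measured by Illumina sequencing of plasmids before and after bacterial one-hybrid selection. The scale puts cognate at 1 and non-cognate at 0. Selection of Caulobacter ParB libraries, four specificity codons randomised, took place in E. coli USO with a HIS3 reporter, site 19 bp from the promoter, over 48 hours at 37°C on M9-minus-histidine with 0.1 mM IPTG and 5 mM 3-AT.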

| Variant | one-hybrid fitness for binding NBS DNA |
| --- | --- |
| CCSS | ≤ 0.2 |
| VDDS | ≤ 0.2 |
| PSLV | ≤ 0.2 |
| FPST | ≤ 0.2 |
| SWYM | ≤ 0.2 |
| ASDI | ≤ 0.2 |
| ATRN | ≤ 0.2 |
| KSLV | ≤ 0.2 |
| RIMR | 0.319 |
| MSQI | ≤ 0.2 |
| SNKS | ≤ 0.2 |
| LGME | ≤ 0.2 |
| PARA | ≤ 0.2 |
| PYMS | ≤ 0.2 |
| AKWT | ≤ 0.2 |
| GQHM | ≤ 0.2 |
| EAGT | ≤ 0.2 |
| WKYM | ≤ 0.2 |
| LAMS | ≤ 0.2 |
| PFGY | ≤ 0.2 |
| LWVI | ≤ 0.2 |
| HLVW | ≤ 0.2 |
| IPVT | ≤ 0.2 |
| DFLL | ≤ 0.2 |

| Variant | one-hybrid fitness for binding NBS DNA |
| --- | --- |
| SVTR | ≤ 0.2 |
| NFCR | ≤ 0.2 |
| FPDL | ≤ 0.2 |
| NKFG | ≤ 0.2 |
| VNME | ≤ 0.2 |
| TVFI | ≤ 0.2 |
| RKWS | 0.467 |
| NEGC | ≤ 0.2 |
| RKEC | ≤ 0.2 |
| ATQL | ≤ 0.2 |
| SIWM | ≤ 0.2 |
| PTDV | ≤ 0.2 |
| QYGA | 0.219 |
| NRQY | ≤ 0.2 |
| PDEN | ≤ 0.2 |
| VETA | ≤ 0.2 |
| KHQI | ≤ 0.2 |
| LFRN | ≤ 0.2 |
| PEGL | ≤ 0.2 |
| DMEL | ≤ 0.2 |
| QNTT | ≤ 0.2 |
| ISIA | ≤ 0.2 |
| PDDD | ≤ 0.2 |
| QLLE | ≤ 0.2 |

| Variant | one-hybrid fitness for binding NBS DNA |
| --- | --- |
| HPNE | ≤ 0.2 |
| FACF | ≤ 0.2 |
| TRLF | ≤ 0.2 |
| TYGD | ≤ 0.2 |
| QQAD | ≤ 0.2 |
| PVHR | ≤ 0.2 |
| VTPM | ≤ 0.2 |
| ESYK | ≤ 0.2 |
| ALPH | ≤ 0.2 |
| LQTT | ≤ 0.2 |
| DMSG | ≤ 0.2 |
| QTKR | 1.15 |
| HHRK | ≤ 0.2 |
| GMVC | ≤ 0.2 |
| TEFL | ≤ 0.2 |
| HVWR | ≤ 0.2 |
| QPTM | ≤ 0.2 |
| GRVR | ≤ 0.2 |
| NYPS | ≤ 0.2 |
| SHQC | ≤ 0.2 |
| SGHS | ≤ 0.2 |
| HALP | ≤ 0.2 |
| ELCI | ≤ 0.2 |
| RCGL | ≤ 0.2 |

| Variant | one-hybrid fitness for binding NBS DNA |
| --- | --- |
| WMPT | ≤ 0.2 |
| FTSG | ≤ 0.2 |
| RSKT | 0.618 |
| LAPW | ≤ 0.2 |
| STWI | ≤ 0.2 |
| VGEL | ≤ 0.2 |
| QVFA | ≤ 0.2 |
| HFNG | ≤ 0.2 |
| YRSV | ≤ 0.2 |
| NYNH | ≤ 0.2 |
| SEHM | ≤ 0.2 |
| SHQR | ≤ 0.2 |
| DAAK | ≤ 0.2 |
| YERT | ≤ 0.2 |
| GYFR | ≤ 0.2 |
| EKTY | ≤ 0.2 |
| SNAM | ≤ 0.2 |
| LFSD | ≤ 0.2 |
| VDCW | ≤ 0.2 |
| GTMG | ≤ 0.2 |
| MRMA | ≤ 0.2 |
| PKSR | ≤ 0.2 |
| NFMF | ≤ 0.2 |
| RHWD | ≤ 0.2 |

| Variant | one-hybrid fitness for binding NBS DNA |
| --- | --- |
| RAIV | ≤ 0.2 |
| AMCS | ≤ 0.2 |
| QTSI | ≤ 0.2 |
| VSEE | ≤ 0.2 |
| VELG | ≤ 0.2 |
| NALH | ≤ 0.2 |
| CMCR | ≤ 0.2 |
| IVLA | ≤ 0.2 |
| QEKC | ≤ 0.2 |
| SDCR | ≤ 0.2 |
| RHFT | 0.245 |
| KMYL | ≤ 0.2 |
| GQLV | ≤ 0.2 |
| AHQN | ≤ 0.2 |
| VLVF | ≤ 0.2 |
| PTTF | ≤ 0.2 |
| VRHV | ≤ 0.2 |
| QVAV | ≤ 0.2 |
| SPLH | ≤ 0.2 |
| PGGY | ≤ 0.2 |
| EAPC | ≤ 0.2 |
| SKDF | ≤ 0.2 |
| RYSI | ≤ 0.2 |
| DCIR | ≤ 0.2 |

| Variant | one-hybrid fitness for binding NBS DNA |
| --- | --- |
| GVHR | ≤ 0.2 |
| SDAW | ≤ 0.2 |
| FSHN | ≤ 0.2 |
| IKRW | ≤ 0.2 |
| VDSS | ≤ 0.2 |
| LNGR | ≤ 0.2 |
| DPYR | ≤ 0.2 |
| LYTS | ≤ 0.2 |
| YHHC | ≤ 0.2 |
| NVRC | ≤ 0.2 |
| WLKM | ≤ 0.2 |
| GLCE | ≤ 0.2 |
| FSMR | ≤ 0.2 |
| VVRK | ≤ 0.2 |
| HREY | ≤ 0.2 |
| TESF | ≤ 0.2 |
| ECNR | ≤ 0.2 |
| WSPD | ≤ 0.2 |
| KAAI | ≤ 0.2 |
| PTWK | ≤ 0.2 |
| EQTY | ≤ 0.2 |
| MPRV | ≤ 0.2 |
| KNHI | ≤ 0.2 |
| KSNY | ≤ 0.2 |

| Variant | one-hybrid fitness for binding NBS DNA |
| --- | --- |
| LTHS | ≤ 0.2 |
| CGSH | ≤ 0.2 |
| DCMT | ≤ 0.2 |
| NVWF | ≤ 0.2 |
| RFQY | ≤ 0.2 |
| TITA | ≤ 0.2 |
| RYQK | ≤ 0.2 |
| SRFR | ≤ 0.2 |
| YLNG | ≤ 0.2 |
| LINM | ≤ 0.2 |
| TECC | ≤ 0.2 |
| NTAC | ≤ 0.2 |
| EKKL | ≤ 0.2 |
| HTTC | ≤ 0.2 |
| SASY | ≤ 0.2 |
| ASDV | ≤ 0.2 |
| DIPG | ≤ 0.2 |
| IRCL | ≤ 0.2 |
| VRPK | ≤ 0.2 |
| QSWM | ≤ 0.2 |
| APST | ≤ 0.2 |
| NPTW | ≤ 0.2 |
| MDTN | ≤ 0.2 |
| SNMR | ≤ 0.2 |

| Variant | one-hybrid fitness for binding NBS DNA |
| --- | --- |
| NAKW | ≤ 0.2 |
| NQFS | ≤ 0.2 |
| RSHE | ≤ 0.2 |
| LIKS | ≤ 0.2 |
| APRP | ≤ 0.2 |
| ISRG | ≤ 0.2 |
| AMYR | ≤ 0.2 |
| YAKT | ≤ 0.2 |
| TKWS | ≤ 0.2 |
| GAFT | ≤ 0.2 |
| PTTK | ≤ 0.2 |
| AMRD | ≤ 0.2 |
| NLMR | ≤ 0.2 |
| RQAE | ≤ 0.2 |
| GKNG | ≤ 0.2 |
| RFLP | ≤ 0.2 |
| HMAG | ≤ 0.2 |
| HDHL | ≤ 0.2 |
| CMMP | ≤ 0.2 |
| MWAS | ≤ 0.2 |
| TTIW | ≤ 0.2 |
| YRAH | ≤ 0.2 |
| QSSR | 0.526 |
| QYFV | ≤ 0.2 |

| Variant | one-hybrid fitness for binding NBS DNA |
| --- | --- |
| LQPT | ≤ 0.2 |
| PGAS | ≤ 0.2 |
| HSPL | ≤ 0.2 |
| EAWY | ≤ 0.2 |
| RMWW | ≤ 0.2 |
| DSNT | ≤ 0.2 |
| LQLL | ≤ 0.2 |
| TKAR | ≤ 0.2 |
| VLDR | ≤ 0.2 |
| TVGL | ≤ 0.2 |
| ASIH | ≤ 0.2 |
| CHRC | ≤ 0.2 |
| TLNF | ≤ 0.2 |
| VYTI | ≤ 0.2 |
| QPWI | ≤ 0.2 |
| DSHR | ≤ 0.2 |
| NVQT | ≤ 0.2 |
| MRHE | ≤ 0.2 |
| CVIC | ≤ 0.2 |
| QEKG | ≤ 0.2 |
| VWSI | ≤ 0.2 |
| ILYS | ≤ 0.2 |
| LVVC | ≤ 0.2 |
| GHLR | ≤ 0.2 |

| Variant | one-hybrid fitness for binding NBS DNA |
| --- | --- |
| RCMA | ≤ 0.2 |
| HAPQ | ≤ 0.2 |
| NKTK | ≤ 0.2 |
| KARL | ≤ 0.2 |
| EMRC | ≤ 0.2 |
| LNKT | ≤ 0.2 |
| AMPC | ≤ 0.2 |
| QQQR | 0.586 |
| NALS | ≤ 0.2 |
| FHNS | ≤ 0.2 |
| MVHL | ≤ 0.2 |
| TLAY | ≤ 0.2 |
| DACN | ≤ 0.2 |
| RIAL | ≤ 0.2 |
| NVSL | ≤ 0.2 |
| VWRC | ≤ 0.2 |
| TWHV | ≤ 0.2 |
| KTTV | ≤ 0.2 |
| VPQD | ≤ 0.2 |
| HSPA | ≤ 0.2 |
| CRES | ≤ 0.2 |
| CMAE | ≤ 0.2 |
| MVER | 0.34 |
| LLSL | ≤ 0.2 |

| Variant | one-hybrid fitness for binding NBS DNA |
| --- | --- |
| FWLR | ≤ 0.2 |
| NVKV | ≤ 0.2 |
| TDMS | ≤ 0.2 |
| NVMR | ≤ 0.2 |
| ASYC | ≤ 0.2 |
| STEL | ≤ 0.2 |
| RCVK | ≤ 0.2 |
| QDTA | ≤ 0.2 |
| QLPN | ≤ 0.2 |
| WKSA | ≤ 0.2 |
| LKTW | ≤ 0.2 |
| EDSM | ≤ 0.2 |
| WVEF | ≤ 0.2 |
| KVKT | ≤ 0.2 |
| VMHS | ≤ 0.2 |
| PTYL | ≤ 0.2 |
| TLGG | ≤ 0.2 |
| GNKK | ≤ 0.2 |
| LDTL | ≤ 0.2 |
| VATR | ≤ 0.2 |
| PMNS | ≤ 0.2 |
| KNIE | ≤ 0.2 |
| FGTT | ≤ 0.2 |
| PCFY | ≤ 0.2 |

| Variant | one-hybrid fitness for binding NBS DNA |
| --- | --- |
| GHQP | ≤ 0.2 |
| RPVW | ≤ 0.2 |
| CFAC | ≤ 0.2 |
| TQTW | ≤ 0.2 |
| HKEP | ≤ 0.2 |
| HAHA | ≤ 0.2 |
| PENA | ≤ 0.2 |
| GLKF | ≤ 0.2 |
| TAMV | ≤ 0.2 |
| RRES | 0.578 |
| APHM | ≤ 0.2 |
| VLTW | ≤ 0.2 |
| HTHI | ≤ 0.2 |
| QMDN | ≤ 0.2 |
| RWLR | ≤ 0.2 |
| CKCC | ≤ 0.2 |
| DRSM | ≤ 0.2 |
| PYTL | ≤ 0.2 |
| TNSI | ≤ 0.2 |
| CAKA | ≤ 0.2 |
| YRND | ≤ 0.2 |
| CSEG | ≤ 0.2 |
| EWDS | ≤ 0.2 |
| IWLF | ≤ 0.2 |

| Variant | one-hybrid fitness for binding NBS DNA |
| --- | --- |
| RNKA | ≤ 0.2 |
| SDNH | ≤ 0.2 |
| CDGK | ≤ 0.2 |
| TGPI | ≤ 0.2 |
| NQKL | ≤ 0.2 |
| ARKN | ≤ 0.2 |
| LTWG | ≤ 0.2 |
| SEQG | ≤ 0.2 |
| QMFD | ≤ 0.2 |
| APQR | ≤ 0.2 |
| MLGI | ≤ 0.2 |
| RVIE | ≤ 0.2 |
| HPKL | ≤ 0.2 |
| WDVT | ≤ 0.2 |
| SPHN | ≤ 0.2 |
| WDVR | ≤ 0.2 |
| KLRA | ≤ 0.2 |
| NPRY | ≤ 0.2 |
